The supplement of paper PMC7580552
Counter-ions that a name gives are not always drawn. This is one part of the list. Single values are uncertain, as repeats are few or missing.

Tested on: Escherichia coli W3110
Test: planktonic growth (OD600) relative to untreated control; higher = more growth
Conditions: 10 µM; 20-24 h; 30 °C; TB
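Also: stationary (unshaken) cultures in 96-well plates, started at OD600 0.05 from mid-exponential cells, with compounds supplied from DMSO stocks.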

| Compound | planktonic growth [%] |
| --- | --- |
| Nc1ccc(S(=O)(=O)Nc2ccccn2)cc1 [Sulfapyridine] | 74 |
| C[C@@H]1C[C@H]2[C@@H]3C[C@H](F)C4=CC(=O)C=C[C@]4(C)[C@@]3(F)[C@@H](O)C[C@]2(C)[C@@]1(O)C(=O)COC(=O)C(C)(C)C [Flumethasone pivalate] | 94 |
| CCOC(=O)c1ccc(N)cc1 [Benzocaine] | 110 |
| CCN(CC)CCOC(=O)C(c1ccccc1)c1ccccc1 [Adiphenine hydrochloride] | 99 |
| OC(CCCN1CCCCC1)(c1ccccc1)c1ccccc1 [Diphenidol hydrochloride] | 89 |
| COc1cccc(OC)c1C(=O)N[C@@H]1C(=O)N2[C@@H]1SC(C)(C)[C@@H]2C(=O)O [Methicillin sodium] | 94 |
| Cc1ccc(S(=O)(=O)NC(=O)NN2CCCCCC2)cc1 [Tolazamide] | 98 |
| C[C@]12CC[C@@H]3c4ccc(OS(=O)(=O)O)cc4CC[C@H]3[C@@H]1CCC2=O [Estropipate] | 110 |
| Cc1ccsc1/C=C/C1=NCCCN1C [Morantel tartrate] | 98 |
| CN(C)c1ccc(O)c2c1C[C@H]1C[C@H]3[C@H](N(C)C)C(O)=C(C(N)=O)C(=O)[C@@]3(O)C(O)=C1C2=O [Minocycline hydrochloride] | 25 |
| CCN(CC)CCNc1ccc(CO)c2sc3ccccc3c(=O)c12 [Hycanthone] | 101 |
| O=C(COc1ccc(Cl)cc1)N1CCN(Cc2ccc3c(c2)OCO3)CC1 [Fipexide hydrochloride] | 92 |
| CNC(C)CCC=C(C)C (centres undefined) [Isometheptene mucate] | 87 |
| CN(Cc1cnc2nc(N)nc(N)c2n1)c1ccc(C(=O)N[C@@H](CCC(=O)O)C(=O)O)cc1 (racemic) [Amethopterin (R,S)] | 94 |
| Cc1cc(-c2ccccc2)nnc1NCCN1CCOCC1 [Minaprine dihydrochloride] | 95 |
| NC(N)=Nc1nc(CSCC/C(N)=N/S(N)(=O)=O)cs1 [Famotidine] | 92 |
| CC/C(=C(/CC)c1ccc(O)cc1)c1ccc(O)cc1 [Diethylstilbestrol] | 92 |
| CC1=C(/C=C/C(C)=C/C=C/C(C)=C\C(=O)O)C(C)(C)CCC1 [Isotretinoin] | 90 |
| CSc1ccc2c(c1)N(CCC1CCCCN1C)c1ccccc1S2 (centres undefined) [Thioridazine hydrochloride] | 111 |
| CN(C)[C@@H]1C(O)=C(C(N)=O)C(=O)[C@@]2(O)C(O)=C3C(=O)c4c(O)cccc4[C@@](C)(O)[C@H]3[C@H](O)[C@@H]12 [Oxytetracycline dihydrate] | 21 |
| CCCCNc1c(C(=O)OCC)c(C)nc2c1cnn2CC [Tracazolate hydrochloride] | 96 |
| CCCCC1(COC(=O)CCC(=O)O)C(=O)N(c2ccccc2)N(c2ccccc2)C1=O [Suxibuzone] | 95 |
| COc1cc(NC(C)CCCN)c2ncccc2c1 (centres undefined) [Primaquine diphosphate] | 100 |
| COc1cc(-c2ccc(=O)[nH]n2)ccc1OC(F)F [Zardaverine] | 99 |
